Measurements reported in PubChem BioAssay AID1240 (Sanford-Burnham Center for Chemical Genomics, 2008).
The campaign covered roughly 50,000 compounds. About 800 (1.6%) showed an effect of 50% or more. The list shows a part of the results.

Target: Bcl-2-like protein 10 (Homo sapiens) (UniProt Q9HD36)
Assay: TR3 peptide-Bcl-B binding displacers, biochemical primary FP assay, phenotype converters (AID 1240);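 note: 0% = Bcl-B with tracer peptide and DMSO and 100% = tracer peptide lacking Bcl-B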
Settings: GST-Bcl-B / FITC-TR3 peptide fluorescence polarization; stronger effect = higher value; compound at 3.75 mg/L

UniProt Q9HD36, sequence (Q9HD36 whole entry, looked up): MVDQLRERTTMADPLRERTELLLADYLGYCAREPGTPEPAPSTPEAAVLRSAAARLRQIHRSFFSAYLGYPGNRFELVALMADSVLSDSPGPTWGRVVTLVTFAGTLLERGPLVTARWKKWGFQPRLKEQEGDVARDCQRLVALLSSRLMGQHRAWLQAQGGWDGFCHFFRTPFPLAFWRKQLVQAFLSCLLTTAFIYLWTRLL

SMILES | displacement [%]
COc1ccc(OC)c(NC(=O)CN(c2ccc(C)c(Cl)c2)S(C)(=O)=O)c1 | -5
Cn1c(=O)c(Cl)c(O)c2ccccc21 | 11.6
O=C1c2cccc3cccc(c23)C(=O)N1/N=C/c1ccco1 | 25.1
O=C(Nc1ccc2c(c1)C(=O)OC2)NC1CCCCC1 | 10.8
O=[N+]([O-])c1cc(C(F)(F)F)ccc1NCCNC(=S)Nc1ccc(Cl)cc1 | -6.5
COc1cc(CN2CCN(CC3CC4C=CC3C4)CC2)cc(OC)c1O (configuration not stated) | -1.3
COc1cccc(C(=O)NNC(=O)c2cc([N+](=O)[O-])cc([N+](=O)[O-])c2)c1 | -8.4
N#CC1=C(N)NC(SCC(=O)c2ccc(Cl)cc2)=C(C#N)C12CCCC2 | -21.2
C/C(=C\c1ccc(Br)cc1)C(=O)c1c(C)cc(C)[nH]c1=O | 10.8
O=C(Nc1ccc(/C=C/c2ccccc2)cc1)c1ccccc1[N+](=O)[O-] | 3.3
COc1ccc(/C=C2\C(=O)NC(=S)N(c3cccc4ccccc34)C2=O)cc1OC | 16.9
COc1ccc(OCC(=O)Nc2ccc3oc(-c4ccccc4F)nc3c2)cc1 | -6.5
COc1ccccc1NC(=O)Cc1ccc(F)cc1F | 11.1
Cc1ccc(C)c(S(=O)(=O)N2CCN(C)CC2)c1 | 5.7
O=C(Cc1ccccc1)Nc1ccc(N2CCCCC2)cc1 | -9.7
COc1ccccc1OCC(=O)NC1CC(C)(C)NC(C)(C)C1 | -9.2
CCOC(=O)c1c(NC(=O)c2ccc(OC)c([N+](=O)[O-])c2)sc2c1CCCC2 | -11.6
CCc1ccc(N2CC(C(=O)NCc3ccc(C)cc3)CC2=O)cc1 (configuration not stated) | 9
COc1ccc(C2C(C(=O)c3ccccc3)C(=O)CC(C)(O)C2C(=O)c2ccccc2)cc1 (configuration not stated) | -10.7
CCOc1ccc(-c2ncnn2-c2cccc(Cl)c2)cc1 | 6.5
Cc1cccc(CC2S/C(=N/N=C/c3cccc([N+](=O)[O-])c3)N(c3ccccc3)C2=O)c1 (configuration not stated) | 11.8
COc1cccc(C(=O)Nc2nc3ccc(C)cc3s2)c1 | -0.1
CCC1=NN(C(=O)c2ccccc2Cl)C(O)(C(F)(F)F)C1 (configuration not stated) | -1.9

SMILES | displacement [%]
O=C(/C=C/c1ccc2c(c1)OCO2)c1ccncc1 | -5.4
CC(NC(=O)C12CC3CC(CC(C3)C1)C2)c1ccccc1 (configuration not stated) | -4.1
COc1ccccc1C1/C(=C(\O)c2ccccc2)C(=O)C(=O)N1c1cccc(Cl)c1 (configuration not stated) | 8.3
NS(=O)(=O)c1ccc(CNC(=O)c2ccc(-c3ccccc3)cc2)cc1 | -9.6
CCOc1ccc(Br)cc1/C=N\NC(=O)c1cc(C)[nH]n1 | -2.6
COc1ccc(NC(=O)CN(c2ccccc2)S(=O)(=O)c2ccccc2[N+](=O)[O-])cc1OC | 15.4
CCOC(=O)C1=C(c2ccccc2)N=c2s/c(=C\c3cccnc3)c(=O)n2C1c1ccc(OC)c(OC)c1 (configuration not stated) | 12.8
COCCN1C(=O)/C(=C/C=C/c2ccccc2)SC1=S | 2.4
Cc1ccc(-n2[nH]c(C)c(/C=N/NC(=O)c3cccc([N+](=O)[O-])c3)c2=O)cc1C | -7
O=C(CSc1nnc(-c2ccco2)n1-c1ccccc1)NCCc1ccccc1 | 2.8
Cc1cccc(N(CC(=O)Nc2ccccc2F)S(=O)(=O)c2ccccc2)c1 | -5
Cc1ccccc1NC(=O)c1ccc(C)c(S(=O)(=O)NCc2ccccc2)c1 | -9.5
COC(=O)C1=C(C)N=c2s/c(=C/c3ccc(OC(C)=O)cc3)c(=O)n2C1c1ccc(OC(C)=O)cc1 (configuration not stated) | 6.8
Cc1cccc(NS(=O)(=O)c2cc(C(C)(C)C)c(F)c(C(C)(C)C)c2)n1 | -3.1
O=C(NC12CC3CC(CC(C3)C1)C2)c1ccc(Cl)c(Cl)c1 | 6.9
O=C(c1ccc(Br)cc1)N1CCN(c2ccccn2)CC1 | -2.2
Oc1ccccc1C=Nc1ccc2c(c1)ncn2-c1ccccc1 | 15.5
O=C(Cc1ccc(Cl)cc1)Nc1ccc(Cl)cc1C(=O)O | 13
COc1cc(/C=C2\C(=O)NC(=S)N(c3ccccc3)C2=O)cc([N+](=O)[O-])c1O | 15.6
O=c1/c(=C\c2ccccc2OS(=O)(=O)c2ccc3ccccc3c2)sc2nc3ccccc3n12 | 4.6
O=c1c2c(nc3cc(-c4ccccc4Cl)[nH]n13)CCC2 | -5.2
CC1(C)CC(=O)C=C(NCc2cccnc2)C1 | 16.4
CCOC(=O)c1cc(=O)n2[nH]c(-c3ccc(Br)cc3)cc2n1 | 1.2

SMILES | displacement [%]
Cc1ccc(-c2ccccc2)n1-c1cccnc1 | -14.3
CC(=O)C12c3ccccc3C(c3ccccc31)C1C(=O)N(c3cccc(C(=O)O)c3)C(=O)C12 (configuration not stated) | 4.7
Cc1cc(C)cc(NC(=O)/C=C/c2ccc(C)o2)c1 | -4.6
NC(=O)CSc1cccc2cccnc12 | -6.7
O=C(c1cc2cc(Br)ccc2oc1=O)N1CCSC1c1ccc([N+](=O)[O-])cc1 (configuration not stated) | 12
Cc1ccc(OCC(=O)Nc2cccc(Cl)c2Cl)c(Br)c1 | 11.1
CC(/C=N\NC(=O)c1ccc2c(c1)OCO2)c1ccccc1 (configuration not stated) | 3.1
Cc1ccc(N2C(=O)NC(=O)/C(=C\c3ccc(O)c(I)c3)C2=O)cc1 | -9
Oc1ccc(Br)cc1C1N(c2ccccc2)CCN1c1ccccc1 | 8.1
Clc1ccc(CN2CCN(/N=C/c3ccc(Br)s3)CC2)cc1 | 14.6
Cc1cc(NC(=O)CCN2C(=O)/C(=C\c3cccs3)SC2=S)no1 | 90.4
COc1ccc(/C=C/C(=O)c2c(C)nc3ccc(Cl)cc3c2-c2ccccc2)cc1OC | -1.9
COc1ccc(-c2ccc(/C=N/NC(=O)c3ccncc3)o2)c([N+](=O)[O-])c1 | 10.6
COc1cc(C2/C(=C(\O)c3ccc(F)cc3)C(=O)C(=O)N2CCCCCC(=O)O)ccc1O (configuration not stated) | -3.5
COCC(=O)N/N=C/c1ccc(OC/C=C/Cl)cc1 | -4.3
Cc1cccc(OCCSc2nc3ccccc3n2CC(=O)O)c1 | 6.2
COc1cccc(C(=O)N2CCN(Cc3ccccc3[N+](=O)[O-])CC2)c1OC | -7.2
Cc1ccc(/C(O)=C/C(=O)C(=O)NCc2ccccc2)cc1 | -0.9
COc1ccc(NC(=O)COc2ccc(-c3ccc(C)cc3)cc2)c([N+](=O)[O-])c1 | 1.9
O=[N+]([O-])c1cc(N=Cc2ccc(Br)s2)ccc1Cl | 1.3
Cc1ccccc1/C=C1/SC(=Nc2ccc(F)cc2)NC1=O | 7.8
